A collection of fitness landscapes (doi:10.1126/science.1257360)
Some of the results follow.

B1: PhoQ; a variant is named by its letters at X, in order, P23837 (parent)
chain: MKKLLRLFFPLSLRVRFLLATAAVVLVLSLAYGMVALIGYSVSFDKTTFRLLRGESNLFYTLAKWENNKLHVELPENIDKQSPTMTLIYDENGQLLWAQRDVPWLMKMIQPDWLKSNGFHEIEADVNDTSLLLSGDHSIQQQLQEVREDDDDAEMTHSVAVNVYPATSRMPKLTIVVVDTIPVELKSSYMVWSWFIYVLSANLLLVIPLLWVAAWWSLRPIEALAKEVRELEEHNRELLNPATTRELTSLVRNLNRLLKSERERYDKYRTTLTDLTHSLKTPLXXLQXXLRSLRSEKMSVSDAEPVMLEQISRISQQIGYYLHRASMRGGTLLSRELHPVAPLLDNLTSALNKVYQRKGVNISLDISPEISFVGEQNDFVEVMGNVLDNACKYCLEFVEISARQTDEHLYIVVEDDGPGIPLSKREVIFDRGQRVDTLRPGQGVGLAVAREITEQYEGKIVAGESMLGGARMEVIFGRQHSAPKDE

Variants of: B1
Experiment: enrichment ratio after two sorts for PhoP signalling (ratio (wild type AVST 3.29)); higher = more functional
Settings: with PhoP (E. coli)

Variant	enrichment ratio
FPHL	≤ 0.25
KVQV	≤ 0.25
HQQS	≤ 0.25
AQTI	3.65
GCSQ	0.849
DWKH	≤ 0.25
IICS	≤ 0.25
YDHG	≤ 0.25
TMVG	≤ 0.25
PHPV	≤ 0.25
EYWH	≤ 0.25
IMLP	≤ 0.25
GKHD	≤ 0.25
FARP	≤ 0.25
DTTH	≤ 0.25
SPYH	≤ 0.25
VEPT	≤ 0.25
DLFP	≤ 0.25
STGW	≤ 0.25
AIFS	≤ 0.25
EFMF	≤ 0.25
TRNR	≤ 0.25
PQYR	≤ 0.25
GLDP	≤ 0.25
SILH	3.1

Variant	enrichment ratio
MYRM	≤ 0.25
NPKS	≤ 0.25
RKRY	≤ 0.25
QFTF	≤ 0.25
PNFC	≤ 0.25
IMKI	≤ 0.25
EDYN	≤ 0.25
PEFF	≤ 0.25
SRRT	≤ 0.25
GYEM	≤ 0.25
RNHH	≤ 0.25
LDSW	0.344
GYCM	≤ 0.25
LNMQ	≤ 0.25
QPMM	≤ 0.25
QRNM	≤ 0.25
LSYV	4
QQYQ	≤ 0.25
SSGM	13.4
SCSR	6.9
SDPE	≤ 0.25
WDTE	≤ 0.25
PWAM	≤ 0.25
YVWR	≤ 0.25
VAIA	≤ 0.25

Variant	enrichment ratio
GITA	7.39
DVLN	≤ 0.25
RFCI	≤ 0.25
DATE	≤ 0.25
WEYT	≤ 0.25
SMMR	2.27
YKRP	≤ 0.25
ETDQ	≤ 0.25
LRNK	≤ 0.25
REPY	≤ 0.25
GWRN	≤ 0.25
RYGD	≤ 0.25
ECVL	≤ 0.25
VWWA	≤ 0.25
MLWM	≤ 0.25
NRLT	≤ 0.25
GYVS	≤ 0.25
LLSK	≤ 0.25
WFEA	≤ 0.25
VFEY	0.839
PIQS	≤ 0.25
LFYG	≤ 0.25
ISDH	≤ 0.25
VDHQ	≤ 0.25
MDNC	≤ 0.25

Variant	enrichment ratio
AALS	9.98
WRCK	≤ 0.25
LDWR	≤ 0.25
GFEY	≤ 0.25
TQNM	5.21
QHAT	≤ 0.25
NKDQ	≤ 0.25
MKFG	≤ 0.25
SKQD	≤ 0.25
QIID	≤ 0.25
FMCT	≤ 0.25
KHLC	≤ 0.25
NNNL	≤ 0.25
KQWY	≤ 0.25
NDCD	≤ 0.25
WNGS	≤ 0.25
LKEW	≤ 0.25
HACL	≤ 0.25
KFMW	≤ 0.25
NQCY	≤ 0.25
SYYW	≤ 0.25
TNKK	≤ 0.25
MHTM	≤ 0.25
FAWL	≤ 0.25
WTWL	≤ 0.25

Variant	enrichment ratio
AICD	5.13
HVWV	≤ 0.25
GKWK	≤ 0.25
THWD	≤ 0.25
IEDN	≤ 0.25
AHSG	6.86
MVCI	≤ 0.25
ALAR	≤ 0.25
TVDC	≤ 0.25
DPGS	≤ 0.25
YAVN	≤ 0.25
HFDH	≤ 0.25
ERGD	≤ 0.25
YYPE	≤ 0.25
GALV	9.65
NFDM	≤ 0.25
YHDD	≤ 0.25
DCHI	≤ 0.25
FSPQ	≤ 0.25
QNNH	≤ 0.25
QDSP	≤ 0.25
QSSR	≤ 0.25
LSAP	≤ 0.25
EIRP	≤ 0.25
TWCH	≤ 0.25

Variant	enrichment ratio
LFSG	≤ 0.25
NEIN	≤ 0.25
IDGI	≤ 0.25
DYAN	≤ 0.25
PAYE	≤ 0.25
LEFC	12.9
WRHV	≤ 0.25
PFWI	≤ 0.25
DSIV	≤ 0.25
YHEG	≤ 0.25
FMAD	≤ 0.25
TGER	≤ 0.25
FWHD	≤ 0.25
MLMT	≤ 0.25
IQPF	≤ 0.25
KRIY	≤ 0.25
FPLD	≤ 0.25
HQRI	≤ 0.25
LGSA	≤ 0.25
TNDD	≤ 0.25
LLPA	≤ 0.25
KIYT	≤ 0.25
LERR	≤ 0.25
SVIA	1.12
RVRQ	1.66

Variant	enrichment ratio
DNFG	≤ 0.25
ELVR	≤ 0.25
TGEP	≤ 0.25
YKTY	≤ 0.25
WTAG	≤ 0.25
YLHF	≤ 0.25
RQQK	≤ 0.25
AMTN	27.1
SYGM	≤ 0.25
KKHH	≤ 0.25
FNER	≤ 0.25
ARCW	≤ 0.25
IWTD	≤ 0.25
WWHK	≤ 0.25
RHKV	≤ 0.25
PLLA	≤ 0.25
LLDC	≤ 0.25
TTME	7.69
RMTS	≤ 0.25
TPFS	≤ 0.25
NQFD	≤ 0.25
ASNM	5.71
EITK	≤ 0.25
ALSK	2.03
NGAF	≤ 0.25

Variant	enrichment ratio
DKGK	≤ 0.25
AGFF	≤ 0.25
RQRT	≤ 0.25
SLRH	≤ 0.25
GNYT	≤ 0.25
YNPH	≤ 0.25
YKGP	≤ 0.25
DQAA	≤ 0.25
NCHW	≤ 0.25
KRNW	≤ 0.25
VGTR	≤ 0.25
KEPF	≤ 0.25
RKLW	≤ 0.25
HVDI	≤ 0.25
ASHH	≤ 0.25
HGAE	≤ 0.25
SGDN	≤ 0.25
NWFV	≤ 0.25
FLSF	≤ 0.25
MHCV	≤ 0.25
